The list shows a part of the results.
How the values were obtained:
HSkMC = human skeletal muscle cells; experiment: cytotoxicity call (relative viability < 0.9); conditions: 10 µM
HepG2 = experiment: cytotoxicity call (relative viability < 0.9); conditions: 10 µM
S. aureus RN4220 = experiment: growth inhibition call (relative growth <= 0.2); conditions: 50 µM

| Compound | cytotoxicity call (HSkMC) | cytotoxicity call (HepG2) | growth inhibition call (S. aureus RN4220) |
| --- | --- | --- | --- |
| C[C@@H]1CN([C@@H](C)CO)C(=O)Cc2cc(NC(=O)Nc3ccc(F)cc3)ccc2O[C@@H]1CN(C)Cc1ccc(C(F)(F)F)cc1 | active | active | inactive |
| C[C@@H]1CCCCO[C@@H](CN(C)C(=O)C2CCCCC2)[C@@H](C)CN([C@H](C)CO)C(=O)c2cc(NC(=O)Nc3cccc4ccccc34)ccc2O1 | inactive | inactive | inactive |
| CCC(=O)Nc1ccc2c(c1)OC[C@@H](C)N(C(=O)CN1CCOCC1)C[C@@H](C)[C@H](OC)CN(C)C2=O | inactive | inactive | inactive |
| C[C@H]1CN([C@@H](C)CO)C(=O)Cc2cc(NC(=O)c3ccncc3)ccc2O[C@H]1CN(C)S(=O)(=O)c1ccc(F)cc1 | inactive | inactive | inactive |
| C[C@@H]1CN([C@@H](C)CO)C(=O)Cc2cc(NC(=O)CCN3CCOCC3)ccc2O[C@@H]1CN(C)Cc1ccccc1 | inactive | inactive | inactive |
| NC(=O)NO | inactive | inactive | inactive |
| COc1ccc(S(=O)(=O)N(C)C[C@@H]2Oc3ccc(NS(C)(=O)=O)cc3C(=O)N([C@H](C)CO)C[C@H]2C)cc1 | inactive | inactive | inactive |
| C[C@H]1CN([C@@H](C)CO)C(=O)Cc2cc(NC(=O)Nc3ccc4c(c3)OCO4)ccc2O[C@@H]1CN(C)C(=O)Nc1ccc(C(F)(F)F)cc1 | inactive | inactive | inactive |
| C[C@H]1CN([C@@H](C)CO)C(=O)c2c(c3ccccc3n2C)-c2ccccc2CO[C@H]1CN(C)Cc1ccc(C(=O)O)cc1 | inactive | inactive | inactive |
| C[C@H]1CCCCO[C@H](CN(C)C(=O)Nc2cccc3ccccc23)[C@@H](C)CN([C@@H](C)CO)C(=O)c2cc(NC(=O)Nc3ccccc3)ccc2O1 | inactive | inactive | inactive |
| C[C@@H]1CN([C@@H](C)CO)C(=O)c2cccc(NC(=O)c3ccc(-c4nccs4)cc3)c2O[C@H]1CN(C)S(=O)(=O)c1ccc(Cl)cc1 | inactive | inactive | inactive |
| CC(C)NC(=O)N(C)C[C@@H]1OCc2cnnn2CCCC(=O)N([C@@H](C)CO)C[C@H]1C | inactive | inactive | inactive |
| COC1=C(N)C(=O)c2nc(-c3nc(C(=O)O)c(C)c(-c4ccc(OC)c(OC)c4O)c3N)ccc2C1=O | active | active | inactive |
| C[C@@H]1CCCCO[C@@H](CN(C)S(=O)(=O)c2ccc(Cl)cc2)[C@H](C)CN([C@@H](C)CO)C(=O)c2cc(NC(=O)NC3CCCCC3)ccc2O1 | inactive | inactive | inactive |
| CCCN(C)C[C@H]1OCCCC[C@@H](C)Oc2ccc(NC(=O)CCC(F)(F)F)cc2C(=O)N([C@H](C)CO)C[C@@H]1C | inactive | inactive | inactive |
| C[C@@H]1CCCCO[C@H](CN(C)Cc2ccc(C(=O)Nc3ccccc3N)cc2)[C@@H](C)CN([C@@H](C)CO)C(=O)c2cc(NC(=O)Nc3ccc(C(F)(F)F)cc3)ccc2O1 | inactive | inactive | inactive |
| C[C@@H]1CCCCO[C@@H](CN(C)Cc2ccc(C(=O)O)cc2)[C@H](C)CN([C@H](C)CO)C(=O)c2cc(NC(=O)CCC(F)(F)F)ccc2O1 | inactive | active | inactive |
| CC(C)[C@@H]1CC[C@@H](C)CC1=O | inactive | inactive | inactive |
| C[C@@H]1CN([C@H](C)CO)C(=O)c2cccc(NC(=O)NC3CCCCC3)c2O[C@@H]1CN(C)C(=O)Nc1cccc2ccccc12 | inactive | inactive | inactive |
| Cc1ccc(S[C@]2(C(=O)NCC(F)(F)F)CC(=O)N(Cc3ccccc3C(F)(F)F)[C@@H]2c2ccc(CO)cc2)cc1 | inactive | inactive | inactive |
| C[C@@H]1CN([C@@H](C)CO)S(=O)(=O)c2ccc(-c3cncnc3)cc2O[C@H]1CN(C)C(=O)Cc1cccnc1 | inactive | inactive | inactive |
| C[C@H](CO)N1C[C@H](C)[C@H](CN(C)C(=O)Nc2ccccc2)Oc2c(NC(=O)c3ccc(-c4nccs4)cc3)cccc2C1=O | inactive | inactive | inactive |
| O=C(N[C@@H]1CC[C@@H](CC(=O)N2CCOCC2)O[C@H]1CO)c1ccccn1 | inactive | inactive | inactive |
| C[C@H](CO)N1C[C@H](C)[C@@H](CN(C)S(=O)(=O)c2ccccc2)Oc2c(NC(=O)c3ccncc3)cccc2C1=O | inactive | inactive | inactive |
| Cc1ccc(S(=O)(=O)Nc2ccc3c(c2)C(=O)N([C@@H](C)CO)C[C@H](C)[C@H](CN(C)S(C)(=O)=O)O3)cc1 | inactive | inactive | inactive |
| CN1CCN(C(=O)C[C@@H]2CC[C@@H]3[C@H](COC[C@H](O)CN3S(=O)(=O)c3cccc(Cl)c3)O2)CC1 | inactive | inactive | inactive |

| Compound | cytotoxicity call (HSkMC) | cytotoxicity call (HepG2) | growth inhibition call (S. aureus RN4220) |
| --- | --- | --- | --- |
| COc1ccc(CN(C)C[C@@H]2Oc3ccc(NC(=O)Nc4ccc(C(F)(F)F)cc4)cc3C(=O)N([C@H](C)CO)C[C@@H]2C)cc1 | active | active | active |
| C[C@H](CO)N1C[C@H](C)[C@H](CN(C)C(=O)Nc2ccc3c(c2)OCO3)Oc2ncc(-c3cccnc3)cc2C1=O | inactive | inactive | inactive |
| C[C@H]1CCCCO[C@@H](CN(C)S(=O)(=O)c2cccs2)[C@@H](C)CN([C@@H](C)CO)C(=O)c2cc(NC(=O)Nc3ccc(F)cc3)ccc2O1 | inactive | active | inactive |
| O=C(C[C@H]1CC[C@H]2[C@@H](COC[C@H](O)CN2C(=O)c2ccc3c(c2)OCO3)O1)NCCN1CCCC1 | inactive | inactive | inactive |
| COc1ccc(NC(=O)O[C@H]2[C@@H]3OC(=O)[C@H](Cc4cccc(Br)c4)C/C=C/C[C@@H](Cc4cccc(Br)c4)C(=O)O[C@H]3[C@@H](OC)O[C@@H]2CO)cc1 | inactive | inactive | inactive |
| C[C@H](CO)N1C[C@H](C)[C@H](CN(C)S(=O)(=O)c2cn(C)cn2)Oc2ccc(NC(=O)c3ccncc3)cc2CC1=O | inactive | inactive | inactive |
| C[C@@H]1CN(C)C(=O)c2cc(NC(=O)Nc3ccccc3)ccc2O[C@@H](C)CCCCO[C@@H]1CN(C)S(=O)(=O)c1ccc(F)cc1 | inactive | inactive | inactive |
| C[C@H]1CN([C@@H](C)CO)S(=O)(=O)c2ccc(/C=C/c3ccccc3)cc2O[C@@H]1CN(C)C(=O)Nc1cc(F)ccc1F | inactive | inactive | inactive |
| O=C(C[C@@H]1CC[C@@H](NC(=O)CN2CCOCC2)[C@H](CO)O1)NCc1cccc(F)c1 | inactive | inactive | inactive |
| COc1ccc2c3c(n(c2c1)C)[C@@H](CO)N(C[C@]13CCN(CC1)C(=O)Nc1ccc(cc1F)F)C(=O)Nc1ccc(cc1)F | inactive | inactive | inactive |
| C=CCC1C=C(C)CC(C)CC(OC)C2OC(O)(C(=O)C(=O)N3CCCCC3C(=O)OC(C(C)=CC3CCC(O)C(OC)C3)C(C)C(O)CC1=O)C(C)CC2OC (stereo unspecified) | inactive | inactive | inactive |
| COc1ccc(NC(=O)N(C)C[C@H]2OCCCC[C@H](C)Oc3ccc(NS(=O)(=O)c4ccccc4)cc3C(=O)N([C@H](C)CO)C[C@@H]2C)cc1 | inactive | inactive | inactive |
| C[C@@H]1CCCCO[C@H](CN(C)S(C)(=O)=O)[C@H](C)CN([C@@H](C)CO)C(=O)c2cc(NC(=O)Nc3cccc4ccccc34)ccc2O1 | inactive | inactive | inactive |
| C[C@@H]1CCCCO[C@H](CN(C)S(=O)(=O)c2ccc(Cl)cc2)[C@@H](C)CN([C@@H](C)CO)C(=O)c2cc(NS(=O)(=O)c3ccc(F)cc3)ccc2O1 | inactive | inactive | inactive |
| COc1ccc(NC(=O)Nc2ccc3c(c2)CC(=O)N([C@H](C)CO)C[C@H](C)[C@H](CN(C)Cc2ccc(-c4ccccc4)cc2)O3)cc1 | inactive | active | inactive |
| CC(C)NC(=O)N(C)C[C@H]1Oc2cc(C#Cc3cccc(F)c3)ccc2S(=O)(=O)N([C@H](C)CO)C[C@@H]1C | inactive | inactive | inactive |
| COCC#Cc1ccc2c(c1)O[C@@H](CN(C)C(=O)Nc1ccc(OC)cc1)[C@H](C)CN([C@@H](C)CO)S2(=O)=O | inactive | inactive | inactive |
| O=C(C[C@@H]1CC[C@H]2[C@@H](COC[C@@H](O)CN2C(=O)c2cnccn2)O1)N1CCN(c2ccccc2)CC1 | inactive | inactive | inactive |
| CN(C)CC[C@H](CSc1ccccc1)Nc1ccc(S(=O)(=O)NC(=O)c2ccc(N3CCN(Cc4ccccc4-c4ccc(Cl)cc4)CC3)cc2)cc1[N+](=O)[O-] | inactive | inactive | inactive |
| C[C@@H]1CN([C@@H](C)CO)C(=O)Cc2cc(NC(=O)CCCN(C)C)ccc2O[C@@H]1CN(C)S(=O)(=O)c1cccs1 | inactive | inactive | inactive |
| Cc1noc(C)c1S(=O)(=O)N(C)C[C@@H]1Oc2ccc(NC(=O)Nc3ccc4c(c3)OCO4)cc2CC(=O)N([C@@H](C)CO)C[C@@H]1C | inactive | inactive | inactive |
| COc1ccc(S(=O)(=O)N(C)C[C@@H]2OCCCC[C@@H](C)Oc3ccc(NC(=O)Nc4ccccc4)cc3C(=O)N([C@@H](C)CO)C[C@@H]2C)cc1 | inactive | inactive | inactive |
| COCC(=O)Nc1ccc2c(c1)OC[C@@H](C)N(Cc1ccccc1OC)C[C@H](C)[C@H](OC)CN(C)C2=O | inactive | inactive | inactive |
| COc1cccc(S(=O)(=O)N[C@@H]2CC[C@H](CCn3cc(-c4ccccc4OC)nn3)O[C@@H]2CO)c1 | inactive | inactive | inactive |
| Cc1noc(C[C@@H]2C[C@@H]3CN(S(C)(=O)=O)C[C@@H]3O2)n1 | inactive | inactive | inactive |
| C[C@H](CO)N1C[C@H](C)[C@H](CN(C)Cc2ccc(C(F)(F)F)cc2)OCCCC[C@H](C)Oc2ccc(NC(=O)Nc3ccc(F)cc3)cc2C1=O | inactive | active | inactive |

Source: the antibiotic and cytotoxicity screens of Wong et al. (2023)
